{"source": "patent US20230256108A1", "about": "“A DRUG CONJUGATE AND APPLICATIONS THEREOF” (GENEQUANTUM HEALTHCARE (SUZHOU) CO., LTD., priority 2019, published 2023)", "key": {"NCI-N87": {"system": "NCI-N87", "test": "Cytotoxicity of TROP2-targeting conjugates", "format": "cell-based, human", "conditions": "TROP2 high-expressing, HER2 high-expressing", "protocol": "(§1) A cytotoxicity assay was performed using a method similar as Example 2, TROP2 high-expressing tumor cells NCI-N87, MDA-MB-468, SK-BR-3, and MCF-7 to measure the effects of the TROP2-targeting conjugates DG202, DG302, DG402, DG502, DG602, DG702, DG802, DG902, DG1002 on tumor cell proliferation. The results are shown in Tables 6-1 and 6-2, wherein NCI-N87 and SK-BR-3 are HER2 high-expressing tumor cells, and MDA-MB-468 and MCF-7 are HER2-negative or HER2 low-expressing tumor cells."}, "MDA-MB-468": {"system": "MDA-MB-468", "test": "Cytotoxicity of TROP2-targeting conjugates", "format": "cell-based, human", "conditions": "TROP2 high-expressing, HER2-negative or low-expressing", "protocol": "as §1"}, "SK-BR-3": {"system": "SK-BR-3", "test": "Cytotoxicity of TROP2-targeting conjugates", "format": "cell-based, human", "conditions": "TROP2 high-expressing, HER2 high-expressing", "protocol": "as §1"}, "[1]": {"system": "Human gastric cancer NCI-N87 tumor", "test": "In vivo pharmacodynamic evaluation of DG1002", "set-up": "species or system BALB/c nude mice", "conditions": "FIG. 9", "protocol": "Experimental animals: SPF BALB/c nude mice (Shanghai Sippr-BK laboratory animal Co. Ltd., females, 6-8 weeks, weighing approximately 18-22 g, 30 in total.\nTumor cells: Human gastric cancer NCI—N87 tumor cells were cultured and then collected during the logarithmic growth phase. After digestion, they were collected and suspended in an appropriate amount of PBS, pH 7.4.\nExperimental method: Each mouse was inoculated with NCI-N87 cells through subcutaneous injection in the right scapular region. The injection volume was 0.2 ml (containing 1 x 10^7 cells). Each animal in the control group was injected with 0.2 ml PBS, pH 7.4.\nAt each time point of measurement, the average tumor volume and standard error of the mean (SEM) of each group were used for statistical analysis, and one-way ANOVA was used for comparison of tumor volume among groups. The formula for calculating tumor volume is V = 0.5 a × b^2, wherein a and b are the long and short diameters of the tumor, respectively. All data were analyzed with SPSS 17 software. The standard for statistically significant was P <0.05.\nThe in vivo pharmacodynamic evaluation of DG1002 was carried out in accordance with the method described in Effect Example 3. The grouping method was as follows: experimental animals with a tumor sizing from 100 to 200 mm^3 are selected and then divided into the following groups, each with 6 animals: a control group which received physiological saline; DG1004 2.5 mg/kg group, 5 mg/kg group and 10 mg/kg group which received reference drug DG1004; DG1002 1 mg/kg group, 2 mg/kg group, and 4 mg/kg group which received the conjugate DG1002 of the present disclosure; and Ab2006410 mg/kg group which received antibody Ab0064."}, "MCF-7": {"system": "MCF-7", "test": "Cytotoxicity of TROP2-targeting conjugates", "format": "cell-based", "conditions": "TROP2 high-expressing, HER2-negative or low-expressing", "protocol": "as §1"}}, "data": [{"molecule": "DG1002: Ab0064 (SEQ ID NO: 33,34), LU102, mc(ring open)-MMAF (conjugate, LU102 linker, mc(ring open)-MMAF payload; Ab0064 Light chain; Ab0064 Heavy chain) light: DIQMTQSPSSLSASVGDRVTITCKASQGINNYLSWYQQKPGKAPKSLIYRANRLVSGVPSRFSGSGSGTDFTLTISSLQPEDFATYYCLQYDEFPLTFGGGTKVEIKRTVAAPSVFIFPPSDEQLKSGTASVVCLLNNFYPREAKVQWKVDNALQSGNSQESVTEQDSKDSTYSLSSTLTLSKADYEKHKVYACEVTHQGLSSPVTKSFNRGECGALPETGG heavy: QVQLVQSGAEVKKPGSSVKVSCKASGYRFTDYVINWVRQAPGQGLEWMGQIYPGSDTFHYNQKFQGRATLTADKSTNTAYMELSSLRSEDTAVYYCARFFEGLAYWGQGTLVTVSS[human IgG1 constant region omitted here]", "values": [{"measurement": "IC50", "setting": "NCI-N87", "value": 0.016, "unit": "nM"}, {"measurement": "IC50", "setting": "MDA-MB-468", "value": 0.034, "unit": "nM"}, {"measurement": "IC50", "setting": "SK-BR-3", "value": 0.019, "unit": "nM"}, {"measurement": "tumor growth inhibition compared with reference drug", "setting": "[1]; DG1002 1 mg/kg", "value": "close to DG1004 (2.5 mg/kg)"}, {"measurement": "tumor growth inhibition compared with reference drug", "setting": "[1]; DG1002 2 mg/kg", "value": "close to DG1004 (5 mg/kg)"}, {"measurement": "tumor growth inhibition compared with reference drug", "setting": "[1]; DG1002 4 mg/kg", "value": "close to DG1004 (10 mg/kg)"}, {"measurement": "IC50", "setting": "MCF-7", "value": 0.03, "unit": "nM"}]}, {"molecule": "DG504: reference drug: Ab0053 (SEQ ID NO: 23,24), LU104' (ring open), DM1 (conjugate, LU104' (ring open) linker, DM1 payload; Ab0053 Light chain; Ab0053 Heavy chain) light: DIQMTQSPSSLSASVGDRVTITCKASQGINNYLSWYQQKPGKAPKSLIYRANRLVDGVPSRFSGSGSGTDYTLTISSLQPEDFATYYCLQYDEFPLTFGGGTKVEIKRTVAAPSVFIFPPSDEQLKSGTASVVCLLNNFYPREAKVQWKVDNALQSGNSQESVTEQDSKDSTYSLSSTLTLSKADYEKHKVYACEVTHQGLSSPVTKSFNRGECGALPETGG heavy: QVQLVQSGAEVKKPGSSVKVSCKASGYRFTDYVINWVRQAPGQGLEWMGQIYPGSDSFHYNQKFQGRATLTADKSTNTAYMELSSLRSEDTAVYYCARFFEGLAYWGQGTLVTVSS[human IgG1 constant region omitted here]", "values": [{"measurement": "IC50", "setting": "NCI-N87", "value": 0.059, "unit": "nM"}]}, {"molecule": "DG604: reference drug: Ab0054 (SEQ ID NO: 25,26), LU104' (ring open), DM1 (conjugate, LU104' (ring open) linker, DM1 payload; Ab0054 Light chain; Ab0054 Heavy chain) light: DIQMTQSPSSLSASVGDRVTITCKASQGINNYLSWYQQKPGKAPKSLIYRANRLVDGVPSRFSGSGSGTDFTLTISSLQPEDFATYYCLQYDEFPLTFGGGTKVEIKRTVAAPSVFIFPPSDEQLKSGTASVVCLLNNFYPREAKVQWKVDNALQSGNSQESVTEQDSKDSTYSLSSTLTLSKADYEKHKVYACEVTHQGLSSPVTKSFNRGECGALPETGG heavy: QVQLVQSGAEVKKPGSSVKVSCKASGYRFTDYVINWVRQAPGQGLEWMGQIYPGSDSFHYNQKFQGRATLTADKSTNTAYMELSSLRSEDTAVYYCARFFEGLAYWGQGTLVTVSS[human IgG1 constant region omitted here]", "values": [{"measurement": "IC50", "setting": "NCI-N87", "value": 0.065, "unit": "nM"}]}, {"molecule": "DG402: Ab0052 (SEQ ID NO: 21,22), LU102, mc(ring open)-MMAF (conjugate, LU102 linker, mc(ring open)-MMAF payload; Ab0052 Light chain; Ab0052 Heavy chain) light: DIQMTQSPSSLSASVGDRVTITCKASQGINNYLSWYQQKPGKAPKSLIYRANRLVDGVPSRFSGSGSGQDYTLTISSLQPEDFATYYCLQYDEFPLTFGGGTKVEIKRTVAAPSVFIFPPSDEQLKSGTASVVCLLNNFYPREAKVQWKVDNALQSGNSQESVTEQDSKDSTYSLSSTLTLSKADYEKHKVYACEVTHQGLSSPVTKSFNRGECGALPETGG heavy: QVQLVQSGAEVKKPGSSVKVSCKASGYRFTDYVINWVRQAPGQGLEWMGQIYPGSDSFHYNQKFQGRATLTADKSTNTAYMELSSLRSEDTAVYYCARFFEGLAYWGQGTLVTVSS[human IgG1 constant region omitted here]", "values": [{"measurement": "IC50", "setting": "NCI-N87", "value": 0.027, "unit": "nM"}]}, {"molecule": "DG502: Ab0053 (SEQ ID NO: 23,24), LU102, mc(ring open)-MMAF (conjugate, LU102 linker, mc(ring open)-MMAF payload; Ab0053 Light chain; Ab0053 Heavy chain) light: DIQMTQSPSSLSASVGDRVTITCKASQGINNYLSWYQQKPGKAPKSLIYRANRLVDGVPSRFSGSGSGTDYTLTISSLQPEDFATYYCLQYDEFPLTFGGGTKVEIKRTVAAPSVFIFPPSDEQLKSGTASVVCLLNNFYPREAKVQWKVDNALQSGNSQESVTEQDSKDSTYSLSSTLTLSKADYEKHKVYACEVTHQGLSSPVTKSFNRGECGALPETGG heavy: QVQLVQSGAEVKKPGSSVKVSCKASGYRFTDYVINWVRQAPGQGLEWMGQIYPGSDSFHYNQKFQGRATLTADKSTNTAYMELSSLRSEDTAVYYCARFFEGLAYWGQGTLVTVSS[human IgG1 constant region omitted here]", "values": [{"measurement": "IC50", "setting": "NCI-N87", "value": 0.027, "unit": "nM"}]}, {"molecule": "DG602: Ab0054 (SEQ ID NO: 25,26), LU102, mc(ring open)-MMAF (conjugate, LU102 linker, mc(ring open)-MMAF payload; Ab0054 Light chain; Ab0054 Heavy chain) light: DIQMTQSPSSLSASVGDRVTITCKASQGINNYLSWYQQKPGKAPKSLIYRANRLVDGVPSRFSGSGSGTDFTLTISSLQPEDFATYYCLQYDEFPLTFGGGTKVEIKRTVAAPSVFIFPPSDEQLKSGTASVVCLLNNFYPREAKVQWKVDNALQSGNSQESVTEQDSKDSTYSLSSTLTLSKADYEKHKVYACEVTHQGLSSPVTKSFNRGECGALPETGG heavy: QVQLVQSGAEVKKPGSSVKVSCKASGYRFTDYVINWVRQAPGQGLEWMGQIYPGSDSFHYNQKFQGRATLTADKSTNTAYMELSSLRSEDTAVYYCARFFEGLAYWGQGTLVTVSS[human IgG1 constant region omitted here]", "values": [{"measurement": "IC50", "setting": "NCI-N87", "value": 0.028, "unit": "nM"}, {"measurement": "IC50", "setting": "MDA-MB-468", "value": 0.058, "unit": "nM"}, {"measurement": "IC50", "setting": "SK-BR-3", "value": 0.025, "unit": "nM"}, {"measurement": "IC50", "setting": "MCF-7", "value": 0.047, "unit": "nM"}]}, {"molecule": "DG702: Ab0061 (SEQ ID NO: 27,28), LU102, mc(ring open)-MMAF (conjugate, LU102 linker, mc(ring open)-MMAF payload; Ab0061 Light chain; Ab0061 Heavy chain) light: DIQMTQSPSSLSASVGDRVTITCKASQGINNYLSWYQQKPGKAPKSLIYRANRLVDGVPSRFSGSGSGTDFTLTISSLQPEDFATYYCLQYDEFPLTFGGGTKVEIKRTVAAPSVFIFPPSDEQLKSGTASVVCLLNNFYPREAKVQWKVDNALQSGNSQESVTEQDSKDSTYSLSSTLTLSKADYEKHKVYACEVTHQGLSSPVTKSFNRGECGALPETGG heavy: QVQLVQSGAEVKKPGSSVKVSCKASGYRFTDYVINWVRQAPGQGLEWMGQIYPGSDTFHYNQKFQGRATLTADKSTNTAYMELSSLRSEDTAVYYCARFFEGLAYWGQGTLVTVSS[human IgG1 constant region omitted here]", "values": [{"measurement": "IC50", "setting": "NCI-N87", "value": 0.021, "unit": "nM"}]}, {"molecule": "DG802: Ab0062 (SEQ ID NO: 29,30), LU102, mc(ring open)-MMAF (conjugate, LU102 linker, mc(ring open)-MMAF payload; Ab0062 Light chain; Ab0062 Heavy chain) light: DIQMTQSPSSLSASVGDRVTITCKASQGINNYLSWYQQKPGKAPKSLIYRANRLVDGVPSRFSGSGSGTDFTLTISSLQPEDFATYYCLQYDEFPLTFGGGTKVEIKRTVAAPSVFIFPPSDEQLKSGTASVVCLLNNFYPREAKVQWKVDNALQSGNSQESVTEQDSKDSTYSLSSTLTLSKADYEKHKVYACEVTHQGLSSPVTKSFNRGECGALPETGG heavy: QVQLVQSGAEVKKPGSSVKVSCKASGYRFTDYVINWVRQAPGQGLEWMGQIYPGSDAFHYNQKFQGRATLTADKSTNTAYMELSSLRSEDTAVYYCARFFEGLAYWGQGTLVTVSS[human IgG1 constant region omitted here]", "values": [{"measurement": "IC50", "setting": "NCI-N87", "value": 0.021, "unit": "nM"}]}]}
